The values below come from paper PMC6919601, “Identification of Plasmodium dipeptidyl aminopeptidase allosteric inhibitors by high throughput screening” (PLoS ONE, 2019).

Among all 110,000 compounds or so, about 230 (0.21%) showed an effect of 50% or more. Some of the results follow.
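Also: 30 min substrate incubation versus DMSO and 10 µM JCP410 controls.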

Chain of DPAP1 (Q8IIJ9 whole entry, looked up): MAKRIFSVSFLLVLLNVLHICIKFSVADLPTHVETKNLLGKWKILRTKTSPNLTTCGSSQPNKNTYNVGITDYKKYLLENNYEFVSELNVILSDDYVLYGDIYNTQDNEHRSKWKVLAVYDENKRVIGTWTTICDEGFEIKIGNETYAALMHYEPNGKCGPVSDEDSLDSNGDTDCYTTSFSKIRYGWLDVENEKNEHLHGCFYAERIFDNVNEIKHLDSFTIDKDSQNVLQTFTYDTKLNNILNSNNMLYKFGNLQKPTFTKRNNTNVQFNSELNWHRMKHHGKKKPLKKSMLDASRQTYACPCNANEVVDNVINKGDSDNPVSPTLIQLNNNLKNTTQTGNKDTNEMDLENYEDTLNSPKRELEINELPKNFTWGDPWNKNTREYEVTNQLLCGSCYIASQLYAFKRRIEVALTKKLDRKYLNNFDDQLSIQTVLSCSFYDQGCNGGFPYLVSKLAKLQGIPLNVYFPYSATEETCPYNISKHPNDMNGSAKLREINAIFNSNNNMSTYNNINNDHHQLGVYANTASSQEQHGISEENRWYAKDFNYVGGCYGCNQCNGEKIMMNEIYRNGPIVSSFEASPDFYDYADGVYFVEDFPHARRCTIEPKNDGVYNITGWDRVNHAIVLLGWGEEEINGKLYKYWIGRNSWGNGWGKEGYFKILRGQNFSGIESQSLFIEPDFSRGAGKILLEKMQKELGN

This assay has as its target DPAP1 (Plasmodium falciparum, UniProt Q8IIJ9). Put plainly: primary screen, percent inhibition; read by cleavage of a fluorogenic dipeptide substrate; higher = more effect of the substance. Also noted: species or system P. falciparum D10 trophozoite lysates; single well.
In the case of `CC1CCCC(NC(=O)c2csc3c2CCCC3)C1C` (centres unmarked), the “% Inhibition @ 10 uM” value is recorded as -3.21%.
Then `Cc1cc(-c2cccs2)c2c(n1)sc1c(=O)[nH]c(=O)[nH]c12`, with 1.86%; and `CCOC(=O)c1c(NC(=O)c2ccc(Cl)c([N+](=O)[O-])c2)sc2c1CCCC2`, with -0.239%.
With `Cc1ccc2c(CNCCCc3ccccc3)c(C(=O)O)n(Cc3ccc(F)cc3)c2c1`, the “% Inhibition @ 10 uM” value was -2.39%.
Then `c1ccc(-c2nnc(SCc3cccnc3)o2)cc1`, with -2.63%; and `Cn1/c(=N\c2ccccc2)sc2ccccc21`, with -0.116%.
As for `CC(Oc1ccccc1F)C(=O)NCc1ccc2c(c1)OCO2` (centres unmarked), the “% Inhibition @ 10 uM” value was determined as 0.231%.
Then `Cc1ccc(Cn2ccc(NC(=O)c3cc4n(n3)C(C(F)(F)F)CC(c3ccco3)N4)n2)cc1` (centres unmarked), with 4.08%; and `Nc1ncnc2[nH]c(SCc3ccc4nsnc4c3)nc12`, with 8.97%.
`CCOC(=O)c1sc(-c2ccccc2)cc1NC(=O)c1cc(=O)c2ccccc2o1`: the “% Inhibition @ 10 uM” value is 4.67%.
For the compound `COc1ccc(OC)c(S(=O)(=O)N2CCN=C2c2ccccc2)c1`, the “% Inhibition @ 10 uM” value is 2.53%.
Then `O=C(CN1C(=O)c2ccccc2S1(=O)=O)Nc1cccc(Cl)c1`, with -8.92%; and `CCO/C(O)=C(\C#N)C(=N)C(F)(F)F`, with -3.78%; and `CC(C)(C)c1ccc(-c2ncccc2O)cc1`, with -0.128%.
As for `Cc1ccc(CNC(=O)Nc2cn(C)c(=O)c3ccccc23)cc1`, the “% Inhibition @ 10 uM” value was found to be 3.96%.
Turning to `O=C(NCc1ccncc1)c1cc(Cl)ccc1Cl`, the “% Inhibition @ 10 uM” value is -3.49%.
As to `c1cncc(CN2CCCCCC2)c1`, the “% Inhibition @ 10 uM” value was -3.56%.
Take `CC(=O)c1c(S)nc(-c2ccccc2)nc1N1CCCC1`: the “% Inhibition @ 10 uM” value was determined as 4.74%.
Take `COc1ccccc1C(=O)CC1(O)C(=O)N(Cc2ccc(Cl)cc2)c2ccccc21` (centres unmarked): the “% Inhibition @ 10 uM” value is -13.8%.
On to `COc1ccccc1CNC(=O)c1cc2sccc2n1C`, for which the “% Inhibition @ 10 uM” value is -6.68%.
`O=C(CCC1CCCCC1)N1CCN(CCN2C(=O)c3ccccc3C2=O)CC1`: the “% Inhibition @ 10 uM” value is listed as -4.42%.
In the case of `Cc1ccc(CCN2CC(C(=O)NC3CCCC3)CC2=O)cc1` (centres unmarked), the “% Inhibition @ 10 uM” value is on record as 1.62%.
In the case of `CC1(C)Oc2ccc3ccc(=O)oc3c2C(/C=N/CCO)=C1O`, the “% Inhibition @ 10 uM” value came to 3.73%.
Then `CC1(C)CC(CCNCc2ccc(O)cc2)(c2ccccc2)CCO1` (centres unmarked), with 3.96%; and `O=C(O)/C=C/c1ccc(-c2ccc(Cl)c(Cl)c2)o1`, with -0.053%.
Consider `CCOC(=O)N1CCN(C(=O)CN(c2ccccc2F)S(=O)(=O)c2ccccc2)CC1`, for which the “% Inhibition @ 10 uM” value is 5.07%.
The value for `Cn1c(=O)c2c(nc(Sc3ncnn3CC(=O)N3CCOCC3)n2C)n(C)c1=O` was -3.41%; that for `Cn1c(=O)[nH]c(=O)c2c1nc(N1CCOCC1)n2CCCSc1ncccn1` was 2.41%; that for `O=C(NCCc1ccccc1)C1CCN(c2nc3ccccc3n3cnnc23)CC1` was 5.9%.
`N#CC1=C(N)Oc2[nH]nc(-c3ccc(Cl)s3)c2C12C(=O)Nc1ccccc12` (centres unmarked): the “% Inhibition @ 10 uM” value is 0.658%.
On to `C=CCn1c(=O)c(C(=O)Nc2nc(C3C4CC5CC(C4)CC3C5)cs2)c(O)c2ccccc21` (centres unmarked), for which the “% Inhibition @ 10 uM” value worked out at 7%.
`CC(C)(C)C1CCc2c(sc(NC(=O)c3ccccc3Cl)c2C(=O)NCCO)C1` (centres unmarked): the “% Inhibition @ 10 uM” value was found to be 14.2%.
The value for `CN(C)Cc1cc(C(C)(C)C)c(O)c(C(C)(C)C)c1` was -5.35%; that for `COC(=O)C1=C(C)NC(=O)CC1c1ccccc1C(F)(F)F` (centres unmarked) was 1.88%.
For the compound `COc1ccc(C2C(C#N)=C3N=C(N)c4c(sc5c4CCCC5)N3C3=C2C(=O)CCC3)cc1OC` (centres unmarked), the “% Inhibition @ 10 uM” value is reported as -2.39%.
Regarding `COc1ccc(C(=O)N(Cc2ccccc2)Cc2ccccc2)cc1OC`, the “% Inhibition @ 10 uM” value is given as -0.192%.
`CC(C)CN1C(=O)c2ccccc2C(C(=O)NCc2ccc3c(c2)OCO3)C1c1cccs1` (centres unmarked): the “% Inhibition @ 10 uM” value was -3.77%.
The value for `CCOc1cc(C2C(C(=O)OC)=CN(C)C=C2C(=O)OC)ccc1O` was -3.23%; that for `COc1cccc(CN2CCN(Cc3cccc(OC)c3OC)CC2)c1OC` was -2.58%.
With `Fc1ccc2c(c1)[C@@H]1C=CC[C@@H]1[C@H](c1ccccc1)N2`, the “% Inhibition @ 10 uM” value was found to be 1.37%.
`COc1ccccc1C1CC(=O)NC(SCC(=O)N2CCCC2)=C1C#N` (centres unmarked): the “% Inhibition @ 10 uM” value amounted to 0.343%.
In the case of `CCOC(=O)c1c(NS(=O)(=O)c2ccc(C)cc2)sc(C)c1C`, the “% Inhibition @ 10 uM” value turned out to be 7.93%.
Then `O=C(C1=C(O)C(=O)N(CCCO)C1c1ccccc1)c1ccc(Br)cc1` (centres unmarked), with -13.3%; and `Cc1ccc(C2C(C#N)=C(N)Oc3c2c(C)nn3-c2ccc(C)cc2)cc1` (centres unmarked), with -0.941%; and `Cc1c(C(=O)NCCc2ccc(Cl)cc2)oc2ccc3c(c12)C(=O)CC(C)(C)O3`, with 4.83%.
For `O=C(NC1CCCc2ccccc21)C1CCCN(S(=O)(=O)c2c[nH]cn2)C1` (centres unmarked), the “% Inhibition @ 10 uM” value is recorded as -4.1%.
Consider `COc1cc(Br)cc(-c2nc3ccccc3s2)c1O`, for which the “% Inhibition @ 10 uM” value is listed as -4.15%.
The value for `COc1ccccc1-n1cnc2cc(C(=O)N3CCOCC3)ccc21` was 2.8%; that for `Nc1nc2ccccc2n1Cc1cccc2nonc12` was -8.3%.
Then `COc1cc(OC)c(OC)cc1CN1CCNCC1`, with -5.98%; and `CCc1c(C)nc2cc(-c3ccccc3)nn2c1O`, with -3.84%.
As for `CCCC12CN3CC(CCC)(CN(C1)C3c1ccc(O)c(OC)c1)C2=O` (centres unmarked), the “% Inhibition @ 10 uM” value worked out at 0.222%.
For `Cc1ccc(/C=C(/C#N)c2nc(-c3cc4ccccc4oc3=O)cs2)cc1`, the “% Inhibition @ 10 uM” value amounted to 0.912%.
Turning to `CCN(CC)CCNC(=O)CS(=O)Cc1nc(-c2ccc(OC)c(OC)c2)oc1C` (centres unmarked), the “% Inhibition @ 10 uM” value is listed as -1.05%.
For the compound `COc1ccc(-c2cc(C(=O)Nc3ccccc3C(N)=O)c3ccccc3n2)cc1OC`, the “% Inhibition @ 10 uM” value was 3.86%.
Regarding `OC(CNCCc1ccccc1)Cn1nnnc1-c1ccccc1` (centres unmarked), the “% Inhibition @ 10 uM” value was determined as 1.49%.
The value for `Cc1oc(-c2cccc(Cl)c2)nc1CS(=O)(=O)CC(=O)NC1CCC(C)CC1` (centres unmarked) was 2.04%.
`CC1CC2=Nc3ncnn3C(c3ccccc3)C2=C(O)C1` (centres unmarked): the “% Inhibition @ 10 uM” value was found to be 3.36%.
Consider `COC(=O)c1cc(S(=O)(=O)NCCc2ccc(SC)cc2)c[nH]1`, for which the “% Inhibition @ 10 uM” value was 2.29%.
Then `Cc1ccc(C2C(=O)c3ccccc3C2=O)c(C)c1C`, with -4.21%; and `COc1ccc(C2C(C(=O)NCC3CCCO3)c3ccccc3C(=O)N2Cc2ccc(F)cc2)cc1` (centres unmarked), with 3.61%.
Turning to `Oc1ncc(CN2CCOCC2)c(O)n1`, the “% Inhibition @ 10 uM” value is given as -4.15%.
The value for `CCCCN1CCc2nc(S)nc(O)c2C1` was -6.08%.
Regarding `COc1ccc2nc(-c3ccco3)c(-c3ccco3)nc2c1`, the “% Inhibition @ 10 uM” value was determined as 7.56%.
The value for `CCCCOc1ccc(-c2c(C#N)c(N)nc(SCc3ccc(Cl)cc3)c2C#N)cc1` was 0.937%.
